# Source: paper PMC12040169 (PLOS Biology, 2025)
# The other results are listed elsewhere or left out.
# System: T1, C. trachomatis L2/434/Bu expressing GFP (CTL2-GFP)
# T1 construct: L2/434/Bu GFP intracellular growth in HeLa cells
# Parameters: species or system HeLa; C. trachomatis total inclusion area by high-content imaging, normalised to DMSO
# Conditions: total inclusion area; 28.5 h, 10 µM; inhibitor
# Outline: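 Host cell viability was gauged from Hoechst-stained nuclei counts, while chlamydial growth was taken from total inclusion area and inclusion number per well. Cells were fixed and imaged by high-content microscopy once bulk GFP and resorufin fluorescence had been measured.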
row,Compound,% of control remaining
1,CC(C)(C)c1cc(C(=O)NCC2CCCN2)n(Cc2ccc(Cl)cc2Cl)n1 (centres unmarked) [CBK115920C],41.987
2,CNCc1ccccc1Sc1cccc(OC)c1 [CBK026207C],86.8788
3,COc1ccccc1-c1nccnc1NCc1ccccn1 [CBK036894],103.964
4,CN1CCCN(c2cncc(-c3ccc4c(c3)OCO4)n2)CC1 [CBK065978],118.205
5,COc1ccc(C)cc1-n1ccc(C(=O)NC2CCSCC2)n1 [CBK305502],38.2851
6,COc1ccccc1-c1ccc2c(c1)COC1(CCN(C)CC1)O2 [CBK061024],102.489
7,CCOC(=O)c1sc(NC(=O)CCNC(=O)c2ccccc2C(=O)O)c(C#N)c1C [CBK295152],84.653
8,CCCCN(C)c1c(CC)nc2ccc(C(=O)Nc3ccc(OC)c(OC)c3)cn12 [CBK145445],102.758
9,COc1cc(/C=C2\N=C(c3cccs3)OC2=O)ccc1OCc1ccc(Cl)cc1 [CBK263176],101.841
10,c1ccc(-c2nc(-c3ccncc3)[nH]c2-c2ccccc2)cc1 [CBK291155],72.0231
11,Cc1ccc(C(=O)O)cc1NC(=O)C(=O)NCC(c1ccccc1)N(C)C (centres unmarked) [CBK286777],95.7112
12,C=CCOc1cccc(CNc2nn[nH]n2)c1 [CBK267618],85.7781
13,CC(C)C(=O)N1CCC[C@@H]2NC(=O)c3ccccc3OCC/C=C/C[C@@H]21 [CBK292064],101.186
14,Cc1cc(C)n2c(SCC(=O)O)nnc2n1 [CBK027406],71.9368
15,CN(C)c1cccc(-c2cncc(NCc3ccco3)n2)c1 [CBK065555],112.245
16,COc1ccc(/N=C(/Nc2cccc(C(F)(F)F)c2)SC)cc1 [CBK018896I],89.4898
17,COc1ccc(-c2nnc(SCC(=O)Nc3cc(C(C)(C)C)no3)n2C2CCCCC2)cc1OC [CBK295131],98.4882
18,Cc1n[nH]c(O)c1C(c1ccc(Br)o1)c1c(C)n[nH]c1O [CBK026150],89.2275
19,CN1CCN(CC(CC(=O)Nc2ccccc2)C(=O)O)CC1 (centres unmarked) [CBK286746],77.0544
20,O=C(Nc1nc2ccccc2[nH]1)NC1CCCCC1 [CBK288210],78.2406
21,COc1cccc(-c2cc(C(=O)N3CCC(C)CC3)n[nH]2)c1 [CBK288109],92.0415
22,CN(C)CCCNC(=O)c1cc2cc(Cl)cc(Cl)c2oc1=O [CBK269132C],93.078
23,O=C(NCc1ccc(Cl)c(Cl)c1)c1cncc(-c2ccc(C(=O)N3CCOCC3)cc2)c1 [CBK158612],60.5666
24,COc1ccc(CN2C(=S)N(c3ccccc3)[C@H]3[C@@H]2[C@H]2OC(=O)[C@@H]3C[C@H]2O)cc1 [CBK288937],93.9839
25,COc1ccccc1-c1ccc(CC2(C(=O)NCc3ccc(F)cc3)CCOCC2)cc1 [CBK286518],91.9072
26,Cc1cc(CSc2cccc(F)c2)no1 [CBK002916],91.1372
27,CCN(Cc1cccnc1)C(CC1CCCCC1)c1ccccc1 (centres unmarked) [CBK061673],83.8652

row,Compound,% of control remaining
1,O=C(CC1(O)C(=O)Nc2ccccc21)CC1(O)C(=O)Nc2ccccc21 (centres unmarked) [CBK263705],123.98
2,CC(Cc1cccs1)NC(=O)c1cc2c([nH]c1=O)CCCCC2 (centres unmarked) [CBK282523],76.3172
3,Cc1cc(C)c2c(OCC(=O)Nc3nc(C(N)=O)cs3)nn(C)c2n1 [CBK305530],40.8164
4,COCCn1c(SCc2cn3cc(Br)ccc3n2)nc(C)c1C [CBK305704],69.8863
5,COc1ccc(Cl)cc1NC(=O)CCCn1cnc([N+](=O)[O-])n1 [CBK268882],105.346
6,CC(C)[C@@H](Cn1nnc2ccccc21)NC(=O)c1ccco1 [CBK282335],90.4575
7,CCn1cc(C2CN(S(=O)(=O)c3ccccc3OC(F)F)CCO2)cn1 (centres unmarked) [CBK304234],49.5086
8,CCc1cc2c3c(c(=O)oc2cc1OCc1cc(C(=O)O)oc1C)CCCC3 [CBK264402],120.68
9,COc1ccc(N2C(=O)CC(N3CCN(c4ccc(C(=O)c5cccnc5)cc4)CC3)C2=O)cc1 (centres unmarked) [CBK268924],120.618
10,O=C(N/N=C/c1ccccn1)c1n[nH]c2c1CCCC2 [CBK262882],102.118
11,O=C(c1ccccc1)c1ccc2n1CCC2C(=O)N1CCN(c2ccccc2)CC1 (centres unmarked) [CBK300536],102.922
12,OCCCNC(c1ccccc1)c1ccc(O)cc1 (centres unmarked) [CBK266329],119.545
13,COc1ccc(C)cc1S(=O)(=O)n1ccc2c(CNC3CC(C)(C)NC(C)(C)C3)cccc21 [CBK113311T],92.3824
14,O=C(Nc1ccc2oc(-c3cccnc3)nc2c1)c1sc2cc(Cl)ccc2c1Cl [CBK267876],110.947
15,Cc1ccc2c(c1)CC(=O)NC21CCN(Cc2cccc(Br)c2)CC1 [CBK039392],94.2306
16,NC(=O)c1sc2cc(C(F)(F)F)cnc2c1-c1cccs1 [CBK089891],75.3165
17,CCN(CC)S(=O)(=O)c1ccc(C(=O)NCc2ccc(OC)cc2)cc1 [CBK305844],29.5292
18,OC(CNCc1ccc2c(c1)OCO2)COc1ccc(SC(F)(F)F)cc1 (centres unmarked) [CBK074691],95.6566
19,CCCCOc1ccc(NC(=O)Nc2cc3cccnc3c(Br)n2)cc1 [CBK063291],49.4388
20,CCOC(=O)CN1CCC(Oc2nccnc2OCc2cc(C)on2)CC1 [CBK082960T],134.67
21,Cc1ccc(C(=O)C2CCN(S(=O)(=O)c3ccc(Cl)c(Cl)c3)CC2)cc1 [CBK019294],90.4865
22,CC1(C)[C@H](Cc2cc(CO)on2)C[C@@H]1N(Cc1ccncc1)Cc1ccncc1 [CBK289233],113.965
23,CS(=O)(=O)NC1CCN(C2CCc3c(F)cc(F)cc32)C1 (centres unmarked) [CBK305101],78.1441
24,CCCC(=O)Nc1ccc(C(=O)N2CCN(C)CC2)cc1 [CBK304337],100.274
25,COC(=O)c1ccc(/C=N/NC(=O)CCc2c(C)n[nH]c2C)cc1 [CBK262904],71.1492
26,CCOc1ccc(Cl)cc1CNc1nnnn1CC [CBK288128],87.4896
27,CCCC(=O)N1CCC(c2nc(C3CCCC3)no2)C1 (centres unmarked) [CBK285457],85.8624

row,Compound,% of control remaining
1,O=C(Nc1ccc(N2CCCCC2)c(F)c1)C1CC(=O)N(C2CC2)C1 (centres unmarked) [CBK281387],82.486
2,O=C([C@@H]1Cc2[nH]cnc2CN1Cc1cc2ccccc2o1)N1CCOCC1 [CBK288977],126.864
3,Cc1oc(C(=O)Nc2ccc(C(=O)O)cc2)cc1COc1ccccc1 [CBK263273],92.8918
4,CCN(CC)C(=O)C1CCCN(C(=O)NCc2cnc(C)cn2)C1 (centres unmarked) [CBK156122],90.0565
5,N#Cc1nc(-c2ccco2)oc1N1CCN(C(=O)c2cc3c(s2)CCCCC3)CC1 [CBK240763],62.791
6,CC(=O)N(C)c1nc(-c2cccc(N(C)C)c2)ccc1C(=O)NC1CCS(=O)(=O)C1 (centres unmarked) [CBK076590],88.0359
7,CCn1c(=O)oc2cc(NC(=O)NCCCc3csc(N)n3)ccc21 [CBK307633],56.8752
8,O=C(N/N=C/c1c[nH]c2ccccc12)c1cc(-c2ccc3ccccc3c2)n[nH]1 [CBK262885],10.5096
9,Cc1cccnc1C(NC(=O)C1CCN(CCOc2ccccc2)CC1)c1ccc(F)cc1 (centres unmarked) [CBK147892],102.716
10,c1ccc(CCCN2CCN(C3CCN(Cc4ccccc4)CC3)CC2)cc1 [CBK263457],89.0261
11,O=C1N=C(NC2CC3CCC2C3)SC12CCC2 (centres unmarked) [CBK073933],139.338
12,COc1cccc(NC(=O)CN(c2cccc(C(C)=O)c2)S(C)(=O)=O)c1 [CBK267502],107.326
13,CC(C)(C)C(=O)N[C@H]1C[C@@H](Cc2cc(CO)on2)C1(C)C [CBK289260],100.285
14,Cc1nn2c(=O)cc(C(=O)O)[nH]c2c1-c1ccccc1 [CBK287129],102.47
15,Clc1ccccc1CSc1nc[nH]n1 [CBK026950],83.3673
16,Cc1ccc(S(=O)(=O)c2cccc(S(N)(=O)=O)c2)cc1S(N)(=O)=O [CBK264535],105.543
17,COC(=O)c1ccccc1NC(=O)C(C)Oc1ccc(Cl)cc1C (centres unmarked) [CBK262388],99.4942
18,COC(=O)c1ccsc1NS(=O)(=O)c1cc(F)c(Br)cc1F [CBK039068],101.169
19,COCCc1noc(CC2CCN(c3ncncc3C#N)CC2)n1 [CBK304178],85.2791
20,CCOc1cc(/C=C2\N=C(c3ccc(OC)cc3)OC2=O)cc(Br)c1OCC(=O)OC [CBK102552],110.109
21,O=C(Nc1ccc(-c2nc3cc(-c4nc5cc(NC(=O)c6cccs6)ccc5[nH]4)ccc3[nH]2)cc1)c1cccs1 [CBK261614],71.4818
22,O=C(NCCCn1ccnc1)c1cc2c(ccc3ccccc32)oc1=O [CBK263543],81.137
23,Cn1c(=O)c2c(nc(NCCOCCO)n2C)n(C)c1=O [CBK288164],91.0923
24,Cc1nn(-c2ccc(N3CCNCC3)nn2)c(=O)c2ccccc12 [CBK270067],118.846
25,CCn1c(=O)n(CC(=O)NCc2cccc(F)c2)c2cccnc21 [CBK283891],86.1889
26,CCC1CCCN(C(=O)Cc2c(C)nc(-c3cccnc3)[nH]c2=O)C1 (centres unmarked) [CBK305801],104.253
